Data reported in the supplement of paper PMC8728848.
This is one part of the list.

Assays:
Test in all cases: glycan array binding signal (z-score within array); higher = stronger binding
Details in all cases: glycan notation: IUPAC condensed, linker removed
[1] = molecular target: Man(a1-2)Man(a1-3)[Man(a1-2)Man(a1-6)]Man
How it was run: (§1)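 Glycan array data were curated from 3228 arrays in the Consortium for Functional Glycomics database and kept only where the protein sequence was available. Glycan names were converted to IUPAC-condensed notation, and columns mapping to the same glycan were averaged. The binding signal is a within-array Z-score, averaged across arrays of the same protein sequence at different concentrations or buffers and across linkers. Negative Z-scores can be read as non-binding.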

[2] = molecular target: Man(a1-2)Man(a1-3)[Man(a1-2)Man(a1-6)]Man(a1-6)[Man(a1-2)Man(a1-2)Man(a1-3)]Man
How it was run: as §1

[3] = molecular target: Man(a1-2)Man(a1-3)[Man(a1-2)Man(a1-6)]Man(a1-6)[Man(a1-2)Man(a1-2)Man(a1-3)]Man(b1-4)GlcNAc(b1-4)GlcNAc
How it was run: as §1

[4] = molecular target: Man(a1-2)Man(a1-3)[Man(a1-6)]Man(a1-6)[Man(a1-2)Man(a1-3)]Man(b1-4)GlcNAc(b1-4)GlcNAc
How it was run: as §1

[5] = molecular target: Man(a1-2)Man(a1-6)[Man(a1-3)]Man(a1-6)[Man(a1-2)Man(a1-2)Man(a1-3)]Man
How it was run: as §1

[6] = molecular target: Man(a1-2)Man(a1-6)[Man(a1-3)]Man(a1-6)[Man(a1-2)Man(a1-2)Man(a1-3)]Man(b1-4)GlcNAc(b1-4)GlcNAc
How it was run: as §1

Man(a1-3)[Man(a1-6)]Man = molecular target: Man(a1-3)[Man(a1-6)]Man
How it was run: as §1

[7] = molecular target: Man(a1-3)[Man(a1-6)]Man(a1-6)[Man(a1-2)Man(a1-3)]Man(b1-4)GlcNAc(b1-4)GlcNAc
How it was run: as §1

[8] = molecular target: Man(a1-3)[Man(a1-6)]Man(a1-6)[Man(a1-3)]Man
How it was run: as §1

[9] = molecular target: Man(a1-3)[Man(a1-6)]Man(a1-6)[Man(a1-3)]Man(b1-4)GlcNAc(b1-4)GlcNAc
How it was run: as §1

[10] = molecular target: Man(a1-3)[Man(a1-6)]Man(b1-4)GlcNAc(b1-4)GlcNAc
How it was run: as §1

[11] = molecular target: Man(a1-3)[Man(a1-6)]Man(b1-4)GlcNAc(b1-4)[Fuc(a1-6)]GlcNAc
How it was run: as §1

Man(a1-6)Man = molecular target: Man(a1-6)Man
How it was run: as §1

Man(b1-4)GlcNAc = molecular target: Man(b1-4)GlcNAc
How it was run: as §1

MurNAc(b1-4)GlcNAc = molecular target: MurNAc(b1-4)GlcNAc
How it was run: as §1

Neu5Ac(a2-3)Gal = molecular target: Neu5Ac(a2-3)Gal
How it was run: as §1

[12] = molecular target: Neu5Ac(a2-3)Gal(b1-3)GalNAc
How it was run: as §1

[13] = molecular target: Neu5Ac(a2-3)Gal(b1-3)GalNAc(b1-3)Gal(a1-4)Gal(b1-4)Glc
How it was run: as §1

[14] = molecular target: Neu5Ac(a2-3)Gal(b1-3)GalNAc(b1-4)Gal(b1-4)Glc
How it was run: as §1

[15] = molecular target: Neu5Ac(a2-3)Gal(b1-3)GalNAc(b1-4)[Neu5Ac(a2-3)]Gal(b1-4)Glc
How it was run: as §1

[16] = molecular target: Neu5Ac(a2-3)Gal(b1-3)GalNAc(b1-4)[Neu5Ac(a2-8)Neu5Ac(a2-3)]Gal(b1-4)Glc
How it was run: as §1

[17] = molecular target: Neu5Ac(a2-3)Gal(b1-3)GalNAc6S
How it was run: as §1

[18] = molecular target: Neu5Ac(a2-3)Gal(b1-3)GlcNAc
How it was run: as §1

[19] = molecular target: Neu5Ac(a2-3)Gal(b1-3)GlcNAc(b1-2)Man
How it was run: as §1

[20] = molecular target: Neu5Ac(a2-3)Gal(b1-3)GlcNAc(b1-2)Man(a1-3)[GlcNAc(b1-4)][Neu5Ac(a2-3)Gal(b1-3)GlcNAc(b1-2)Man(a1-6)]Man(b1-4)GlcNAc(b1-4)GlcNAc
How it was run: as §1

[21] = molecular target: Neu5Ac(a2-3)Gal(b1-3)GlcNAc(b1-2)Man(a1-3)[Neu5Ac(a2-3)Gal(b1-3)GlcNAc(b1-2)Man(a1-6)]Man(b1-4)GlcNAc(b1-4)GlcNAc
How it was run: as §1

[22] = molecular target: Neu5Ac(a2-3)Gal(b1-3)GlcNAc(b1-2)[Neu5Ac(a2-3)Gal(b1-3)GlcNAc(b1-4)]Man(a1-6)[Neu5Ac(a2-3)Gal(b1-3)GlcNAc(b1-2)Man(a1-3)]Man(b1-4)GlcNAc(b1-4)GlcNAc
How it was run: as §1

[23] = molecular target: Neu5Ac(a2-3)Gal(b1-3)GlcNAc(b1-3)Gal(b1-3)GlcNAc
How it was run: as §1

[24] = molecular target: Neu5Ac(a2-3)Gal(b1-3)GlcNAc(b1-3)Gal(b1-4)GlcNAc
How it was run: as §1

[25] = molecular target: Neu5Ac(a2-3)Gal(b1-3)GlcNAc(b1-3)GalNAc
How it was run: as §1

[26] = molecular target: Neu5Ac(a2-3)Gal(b1-3)GlcNAc(b1-6)GalNAc
How it was run: as §1

[27] = molecular target: Neu5Ac(a2-3)Gal(b1-3)GlcNAc6S
How it was run: as §1

[28] = molecular target: Neu5Ac(a2-3)Gal(b1-3)[Fuc(a1-4)]GlcNAc
How it was run: as §1

[29] = molecular target: Neu5Ac(a2-3)Gal(b1-3)[Fuc(a1-4)]GlcNAc(b1-3)Gal(b1-3)[Fuc(a1-4)]GlcNAc
How it was run: as §1

[30] = molecular target: Neu5Ac(a2-3)Gal(b1-3)[Fuc(a1-4)]GlcNAc(b1-3)Gal(b1-4)[Fuc(a1-3)]GlcNAc
How it was run: as §1

[31] = molecular target: Neu5Ac(a2-3)Gal(b1-3)[GlcNAc(b1-6)]GalNAc
How it was run: as §1

[32] = molecular target: Neu5Ac(a2-3)Gal(b1-3)[Neu5Ac(a2-6)]GalNAc
How it was run: as §1

[33] = molecular target: Neu5Ac(a2-3)Gal(b1-3)[Neu5Ac(a2-6)]GlcNAc(b1-3)[Fuc(a1-3)[Gal(b1-4)]GlcNAc(b1-6)]Gal(b1-4)Glc
How it was run: as §1

[34] = molecular target: Neu5Ac(a2-3)Gal(b1-3)]Neu5Ac(a2-3)Gal(b1-4)]GlcNAc
How it was run: as §1

Neu5Ac(a2-3)Gal(b1-4)Glc = molecular target: Neu5Ac(a2-3)Gal(b1-4)Glc
How it was run: as §1

[35] = molecular target: Neu5Ac(a2-3)Gal(b1-4)GlcNAc
How it was run: as §1

[36] = molecular target: Neu5Ac(a2-3)Gal(b1-4)GlcNAc(b1-2)Man
How it was run: as §1

[37] = molecular target: Neu5Ac(a2-3)Gal(b1-4)GlcNAc(b1-2)Man(a1-3)[GlcNAc(b1-4)][Neu5Ac(a2-3)Gal(b1-4)GlcNAc(b1-2)Man(a1-6)]Man(b1-4)GlcNAc(b1-4)GlcNAc
How it was run: as §1

[38] = molecular target: Neu5Ac(a2-3)Gal(b1-4)GlcNAc(b1-2)Man(a1-3)[Neu5Ac(a2-3)Gal(b1-4)GlcNAc(b1-2)Man(a1-6)]Man(b1-4)GlcNAc(b1-4)GlcNAc
How it was run: as §1

[39] = molecular target: Neu5Ac(a2-3)Gal(b1-4)GlcNAc(b1-2)Man(a1-3)[Neu5Ac(a2-3)Gal(b1-4)GlcNAc(b1-2)Man(a1-6)]Man(b1-4)GlcNAc(b1-4)[Fuc(a1-6)]GlcNAc
How it was run: as §1

B1: PhoSpL (Pholiota squarrosa) (peptide)
chain: APVPVTKLVCDGDTYKCTAYLDFGDGRWVAQWDTNVFHTG
[1]
  glycan array binding signal (z-score): -0.443
[2]
  glycan array binding signal (z-score): -0.503
[3]
  glycan array binding signal (z-score): -0.304
[4]
  glycan array binding signal (z-score): -0.525
[5]
  glycan array binding signal (z-score): -0.415
[6]
  glycan array binding signal (z-score): -0.211
Man(a1-3)[Man(a1-6)]Man
  glycan array binding signal (z-score): -0.118
[7]
  glycan array binding signal (z-score): 0.212
[8]
  glycan array binding signal (z-score): -0.462
[9]
  glycan array binding signal (z-score): -0.068
[10]
  glycan array binding signal (z-score): -0.131
[11]
  glycan array binding signal (z-score): 6.32
Man(a1-6)Man
  glycan array binding signal (z-score): -0.564
Man(b1-4)GlcNAc
  glycan array binding signal (z-score): -0.41
MurNAc(b1-4)GlcNAc
  glycan array binding signal (z-score): -0.337
Neu5Ac(a2-3)Gal
  glycan array binding signal (z-score): -0.325
[12]
  glycan array binding signal (z-score): -0.186
[13]
  glycan array binding signal (z-score): -0.603
[14]
  glycan array binding signal (z-score): 0.013
[15]
  glycan array binding signal (z-score): 0.143
[16]
  glycan array binding signal (z-score): -0.317
[17]
  glycan array binding signal (z-score): -0.165
[18]
  glycan array binding signal (z-score): 0.036
[19]
  glycan array binding signal (z-score): -0.135
[20]
  glycan array binding signal (z-score): -0.151
[21]
  glycan array binding signal (z-score): 0.04
[22]
  glycan array binding signal (z-score): -0.65
[23]
  glycan array binding signal (z-score): -0.282
[24]
  glycan array binding signal (z-score): 0.31
[25]
  glycan array binding signal (z-score): 0.15
[26]
  glycan array binding signal (z-score): 0.594
[27]
  glycan array binding signal (z-score): 0.282
[28]
  glycan array binding signal (z-score): -0.314
[29]
  glycan array binding signal (z-score): -0.57
[30]
  glycan array binding signal (z-score): -0.765
[31]
  glycan array binding signal (z-score): -0.29
[32]
  glycan array binding signal (z-score): -0.216
[33]
  glycan array binding signal (z-score): -0.383
[34]
  glycan array binding signal (z-score): -0.288
Neu5Ac(a2-3)Gal(b1-4)Glc
  glycan array binding signal (z-score): -0.236
[35]
  glycan array binding signal (z-score): -0.04
[36]
  glycan array binding signal (z-score): 0.306
[37]
  glycan array binding signal (z-score): -0.113
[38]
  glycan array binding signal (z-score): -0.406
[39]
  glycan array binding signal (z-score): 0.562
